For 22 molecules, binding signal results are on record in publication PMC12136788.

B1: 80559767_80559887_2609_3pUTR_ENSG00000141568_ENST00000335255|human|control|control (ssRNA)
RNA: GGGAGUUCUACAGUCCGACGAUCAGGGCCUGUGUGAUUCUGAAAGUCUCAGUAGAAAUGGAGUGAUGUGAAAUGCCCAAGACCCCAUUAUUUUGUAAAGAAAGGACACCUCAAAAUACUCUAAUUCCACAUGUCUCCGCUGCCCAACAGAGGAUUGAGCAUCA
B2: chrX:140365796:140365797:-_ENSMUSG00000031285_ENSMUST00000033642|mus_mus|mus_mus_mus_hu_False|1_48 (ssRNA)
RNA: GGGAGUUCUACAGUCCGACGAUCCUUCUCAUUACUCAGUGCCUGCAAGGUUCUGGUUCGGUAGAAGCUACAGUGGGCGCUGUGAGUGGGACUUGGAAACCCAUUCAUCCGGGAGCCUCGCAUGUUCCUGGAUGUCUUGUCUCGCAACAGAGGAUUGAGCAUCA
B3: chr7:108143013:108143014:-_ENSG00000135241_ENST00000257694|hu_mus|FALSE|FALSE (ssRNA)
RNA: GGGAGUUCUACAGUCCGACGAUCGAGGAUUCGGAUUCCUCUGCCUUUCACUGGAUCUACAUAACCAAUUAAAGCCAAAAUUUCUCUAACUGCAGCCUGAAGAGUUUCAUCCUUAACUUGUCUCAGCCGUAAUAAAUAUGGAAUCAACAGAGGAUUGAGCAUCA
B4: chr7:135612270:135612271:-_ENSG00000105887_ENST00000393085|hu_mus|hu_hu_hu_mus_False|58_78 (ssRNA)
RNA: GGGAGUUCUACAGUCCGACGAUCGUUUUUUUCUGAGAUGUUAAAUAGUACUUCAGUAACAAAACUUACUUAACCUUUCGCUAAUGCGUGUUGUACCAAAAGCAGACAUUUUAGCUUCAUUUAUUCAAAAAUAUUAACAUUAAGCAACAGAGGAUUGAGCAUCA
B5: chr5:21408736:21408737:-_ENSMUSG00000042453_ENSMUST00000161356|mus_hu|mus_mus_mus_hu_False|78_108 (ssRNA)
RNA: GGGAGUUCUACAGUCCGACGAUCGUUGACAGCAUUAUAGAUGGUGGCUUCAUGGAACUGGAACGGGGAGCAGCCAAUGCUGUUAGAAGAGGAAGGAAGGCACUGGGUCUGUACGAGCUGCCAGGAAUCCGAUCUUGCAUCCUUCAACAGAGGAUUGAGCAUCA
B6: chr5:64892317:64892318:-_ENSG00000113595_ENST00000231524|hu_hu|motif|central (ssRNA)
RNA: GGGAGUUCUACAGUCCGACGAUCAGCUUGAGUAUUGAGGUAAUAAUGUUUCCACAAUGGUCUUAAUUUGUGUUUUCCACCGGCAUCCCAAAUAGUGAAUUUUAGAUUUUUAUAUUCUACAGUUUCCACGUUAAAACCAAUUGUCAACAGAGGAUUGAGCAUCA
B7: chr7:65419240:65419241:+_ENSG00000196715_ENST00000360768|hu_hu|FALSE|FALSE (ssRNA)
RNA: GGGAGUUCUACAGUCCGACGAUCCGGGCGUCAGUCCUGCUUGGGUUGCAGCUGCCGCUUCCAGGCCUCGUUCAAGUAAACUAGUCGUUUGUAGUUGAUAAUGAGAAGAAGGAAGUUCAGCACGUACGUGACGAUGCAGAUGAUCAACAGAGGAUUGAGCAUCA
B8: chr18:52892545:52892546:-_ENSG00000196628_ENST00000354452|hu_mus|FALSE|FALSE (ssRNA)
RNA: GGGAGUUCUACAGUCCGACGAUCUGAAAUUGCAGCUUUUUCUCUGUCCGAGUGAGAACAAAAUAUAAAAGCACCAAUUGAAAAAAAAAAUCUCAAAUGAUUUAAUUUAAAAAUUUAAUUUUUUGCUUUGUUUACAGAGUUGAACAACAGAGGAUUGAGCAUCA
B9: 46683936_46684056_841_CDS_ENSMUSG00000033319_ENSMUST00000036226|mouse|control|control (ssRNA)
RNA: GGGAGUUCUACAGUCCGACGAUCUCGAAGAGGAGUUGAGUUGGUUAAAGUCGUGUUGUUGACAGAUGCUCCGUGAUUUAACAAAGACUGGACAACCUUCAGAUGUCCUGCUGCAGAAGCGGCCCAUAAAGGGGGGGCCCCCUCCAACAGAGGAUUGAGCAUCA
B10: chr2:91446484:91446485:+_ENSMUSG00000040549_ENSMUST00000099716|mus_mus|FALSE|FALSE (ssRNA)
RNA: GGGAGUUCUACAGUCCGACGAUCCAACUUCUCAUCUGCCAUGUGUGUGCUGUAGAUGAGUCUUAGCUGCAUGAAUGUUGCUAUCAGAAACUGAUCAAUGUGGCCAGACAUAGCUUCAGCUUUGUCUUCCUGCCUCAGGACCUCCAACAGAGGAUUGAGCAUCA
B11: chr9:70551142:70551143:+_ENSMUSG00000054693_ENSMUST00000067880|mus_mus|FALSE|FALSE (ssRNA)
RNA: GGGAGUUCUACAGUCCGACGAUCACGCUGGUGUUUUUGGUGUAAUGAAUCCACAUUGUAAGAUAAUCCUUCAUAAUGUCUAAUAUAUUUAUUUAAAGGAUUUCCAUACUGACCUCCCAGCCCCGCCGCCCAGGAGAGGAGCAGCAACAGAGGAUUGAGCAUCA
B12: chr1:220276048:220276049:+_ENSG00000067704_ENST00000302637|hu_hu|hu_hu_hu_mus_True|38_58 (ssRNA)
RNA: GGGAGUUCUACAGUCCGACGAUCGCAAAUUGCCUGGUUGGCGGGAAUUGUCCAAGGCUGGGUGGUCCAAACUAAAAUACUAACAGGGGAUGAGGCAUCUAUAAGAGACUCCAACUUCGGAGGAGGUCUCAGGAGGGGGAAUCUCAACAGAGGAUUGAGCAUCA
B13: chr2:60073003:60073004:+_ENSMUSG00000026977_ENSMUST00000102748|mus_hu|FALSE|FALSE (ssRNA)
RNA: GGGAGUUCUACAGUCCGACGAUCAAGGAGGCUCUCUUUUAUUUUCUGCAAUCUUUCUGGAUCUCUUGAAGGCGCACUUUUAGUUUUAUCACUUUUACCAUCAGCUGAAUUCCAACCUGAAGGAAUAAUAUCUACUGUGAUCAUCAACAGAGGAUUGAGCAUCA
B14: chr2:198267338:198267339:-_ENSG00000115524_ENST00000335508|hu_hu|motif|central (ssRNA)
RNA: GGGAGUUCUACAGUCCGACGAUCAAUGAUUUCAACUAAACUUCUAAGAUGUGGCAAGAUGGCACAGCCCAUAAGAAUAGCGGUCUGUUGUACAAUCUUAAUACCAGUGUGUCUCGCUUGCCAGGACUUCUUGCUUUUGCACACCAACAGAGGAUUGAGCAUCA
B15: chr11:53076483:53076484:-_ENSMUSG00000020361_ENSMUST00000020630|mus_hu|FALSE|FALSE (ssRNA)
RNA: GGGAGUUCUACAGUCCGACGAUCUUCAAAUAAUUUUGGUCGUUCUUCAGAUUCCUGGAAACGUAUCUUAAUAGGUUGACCUAGAUUUUUUAAUUCAGCCAACUUAUCAACAUAAACUUGCUUUGGCUGGUCUUCUCCAUCCUCCAACAGAGGAUUGAGCAUCA
B16: chr10:127876205:127876206:+_ENSMUSG00000025373_ENSMUST00000096386|mus_hu|motif|central (ssRNA)
RNA: GGGAGUUCUACAGUCCGACGAUCUCUAUGGAACAAUUAUGGCCUGUGCCACAAGAGGCAGUGCCAACCAUAUUUUAGCAAAAGCGGGGAGUAGCUUCUUGCUAAACACAUCAACCCCCAACAGAUUAACCCCUACCCUAAACCCAACAGAGGAUUGAGCAUCA
B17: chr10:27425285:27425286:-_ENSG00000136758_ENST00000375972|hu_mus|FALSE|FALSE (ssRNA)
RNA: GGGAGUUCUACAGUCCGACGAUCUCUGUCCCGCAAAAGAAACCCCUUCACAAAUGAUGGUGCUAUAUUCUGUGCUUCUACUAAUCUUUCAGAGGUAGACUGCAAACGUCGUGUCCUUGAUUUCAACGUUUUGAAACCCCGAGACAACAGAGGAUUGAGCAUCA
B18: chr19:32867047:32867048:+_ENSMUSG00000013663_ENSMUST00000013807|mus_hu|motif|central (ssRNA)
RNA: GGGAGUUCUACAGUCCGACGAUCAGCACAAAGAUUGUAUAUCUUGUAAUGGUUUUUAUGCUUUGAAUCCAAAAACCUUACGGCAUCAUCAAUAUUGUUCCUGUAUACGCCUUCAAGUCUUUCUGCAGGAAAUCCCAUAGCAAUCAACAGAGGAUUGAGCAUCA
B19: chr12:111868959:111868960:+_ENSMUSG00000018707_ENSMUST00000018851|mus_hu|FALSE|FALSE (ssRNA)
RNA: GGGAGUUCUACAGUCCGACGAUCCAAUGUGAGCCACUCAUUGAUUUUGGGAUGUUCAGUAAUUGACACAGGAGUUUUAAACAUAACCUCCUCUCCUUCCCGAGAUGAAAUACCCAAAACAACAGAGUUAUCCUCGUUCAGGAUCAACAGAGGAUUGAGCAUCA
B20: 77926795_77926915_274_3pUTR_ENSG00000138758_ENST00000541121|human|control|control (ssRNA)
RNA: GGGAGUUCUACAGUCCGACGAUCCGGUGUCAACAAUGGUUAACUUCAGCCGUACAUUGCUUUCCUGAAGCUCAUAACUUCUGGCUUUUAACCGAACACCUGGUUCAUUGUGAGUAGCUGGGUCACUUUCAAAUUUGGUGUUGACAACAGAGGAUUGAGCAUCA
B21: 81594963_81596974_2799_CDS_ENSG00000153956_ENST00000356860|human|control|control (ssRNA)
RNA: GGGAGUUCUACAGUCCGACGAUCAAUCACACAAUCCAUUACGUCACUGUUUCUUUUGCAGUCACAAACUGGACCAGCACACGGAUCUCUGAUUGAGGUUUUGGUGAAAUUCUCUAUCCAGGAAUUUACAUCAAUUUUAAUUCCCAACAGAGGAUUGAGCAUCA
B22: chr18:10010065:10010066:-_ENSMUSG00000047879_ENSMUST00000092096|mus_hu|FALSE|FALSE (ssRNA)
RNA: GGGAGUUCUACAGUCCGACGAUCUAGAAUAAUAGGUGGAAUACUGGAAGAAGUUUUAUCCAUGGAAUCAAACAAAUCUCUAAGGGCUGCAGUAAUAUACUGCGCUGAAGCCAUUUCCCCUGAAGCUCUCAAGGCACCUGCAUACAACAGAGGAUUGAGCAUCA

This is one part of the list.

The target in this experiment is T1, UNK ZnF1-3 (human, UniProt Q9C0B0 31-174).
T1 sequence: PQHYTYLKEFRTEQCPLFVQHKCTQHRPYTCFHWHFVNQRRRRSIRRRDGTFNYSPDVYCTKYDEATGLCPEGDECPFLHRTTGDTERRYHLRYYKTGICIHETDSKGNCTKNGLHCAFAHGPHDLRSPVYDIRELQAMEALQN
The experiment is described as follows: nsRBNS (natural sequence RNA bind-n-seq); RBNS binding buffer (assumed for nsRBNS): 25 mM Tris pH 7.5, 150 mM KCl, 3 mM MgCl2, 0.01% Triton X-100, 500 ug/ml BSA, 20 U/ml SUPERase-In, 4 C; UNK is unkempt and MSI1 is Musashi-1; names of the RNAs are library labels; protein concentration not given here; high values mean tight binding.
On to B1, for which the binding signal was found to be 1.08 enrichment R.

As for B2, the binding signal amounted to 0.384 enrichment R.

B3 yielded a binding signal of 1.2 enrichment R.

On to B4, for which the binding signal was 0.912 enrichment R.

B5 showed a binding signal of 1.75 enrichment R.

Take B6: the binding signal was found to be 2.03 enrichment R.

As for B7, the binding signal was 0.758 enrichment R.

As for B8, the binding signal amounted to 1.37 enrichment R.

Regarding B9, the binding signal was found to be 1.3 enrichment R.

B10 yielded a binding signal of 0.512 enrichment R.

Take B11: the binding signal is 2 enrichment R.

On to B12, for which the binding signal came to 2.47 enrichment R.

Turning to B13, the binding signal is 0.911 enrichment R.

In turn, B14 displayed a binding signal of 0.832 enrichment R.

The molecule B15 showed a binding signal of 0.667 enrichment R.

In the case of B16, the binding signal amounted to 1.16 enrichment R.

Turning to B17, the binding signal came out at 1.08 enrichment R.

For B18, the binding signal came to 1.12 enrichment R.

B19 displayed a binding signal of 1.21 enrichment R.

In turn, B20 came in with a binding signal of 0.53 enrichment R.

Molecule B21 returned a binding signal of 0.705 enrichment R.

As to B22, the binding signal was 1.65 enrichment R.
